From PubChem BioAssay AID1645882 (National Center for Advancing Translational Sciences (NCATS), 2021) come the findings set out here.

Each structure is given as a SMILES string. Out of some 16,000 compounds screened, about 120 (0.75%) were called active. Roughly 4% stayed inconclusive and do not appear here. Calls come from the whole dose curve; as a rule, active = well fitted inhibition curve with a large enough effect; inconclusive = small, poorly fitted or top-dose-only effect; inactive = no such curve, though single readings can be large or run the other way. The list shows a part of the results.
Potency is the fitted concentration of half-maximal effect.

UniProt O95398, sequence (O95398 whole entry, looked up): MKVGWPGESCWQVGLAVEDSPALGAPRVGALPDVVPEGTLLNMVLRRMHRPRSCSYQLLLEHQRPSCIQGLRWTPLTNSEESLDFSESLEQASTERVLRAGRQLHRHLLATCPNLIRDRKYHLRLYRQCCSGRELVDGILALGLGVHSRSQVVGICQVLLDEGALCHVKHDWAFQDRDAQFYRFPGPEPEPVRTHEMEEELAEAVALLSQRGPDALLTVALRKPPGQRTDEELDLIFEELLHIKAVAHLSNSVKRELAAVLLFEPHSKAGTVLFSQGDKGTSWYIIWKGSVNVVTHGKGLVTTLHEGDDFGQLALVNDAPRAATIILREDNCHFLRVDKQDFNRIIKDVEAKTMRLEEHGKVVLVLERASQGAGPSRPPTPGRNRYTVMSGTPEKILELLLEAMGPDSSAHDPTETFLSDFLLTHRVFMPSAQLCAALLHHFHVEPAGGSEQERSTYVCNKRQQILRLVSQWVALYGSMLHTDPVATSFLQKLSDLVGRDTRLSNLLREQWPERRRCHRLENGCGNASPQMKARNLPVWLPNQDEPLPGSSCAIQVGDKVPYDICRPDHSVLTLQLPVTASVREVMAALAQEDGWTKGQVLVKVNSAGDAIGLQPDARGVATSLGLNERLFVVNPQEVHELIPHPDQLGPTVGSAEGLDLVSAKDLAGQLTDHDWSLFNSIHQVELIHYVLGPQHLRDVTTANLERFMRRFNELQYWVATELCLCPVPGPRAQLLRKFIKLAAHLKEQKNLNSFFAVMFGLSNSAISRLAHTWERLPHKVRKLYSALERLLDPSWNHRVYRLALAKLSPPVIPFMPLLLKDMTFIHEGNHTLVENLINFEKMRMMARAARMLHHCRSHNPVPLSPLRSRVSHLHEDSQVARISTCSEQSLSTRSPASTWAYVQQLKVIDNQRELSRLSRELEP

For this assay, the target named is Rap guanine nucleotide exchange factor 3 (Homo sapiens) (UniProt O95398). In words: Validation qHTS for antagonist of cAMP-regulated guanine nucleotide exchange factor 3 (EPAC1).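 For activity change, negative = inhibition: plate controls were DMSO for no effect and ATA control for full effect.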 Note: nearly all actives have a fitted effect of over 75% in size. The conditions noted are these: EPAC1 Rap1B-BODIPY-GDP exchange, fluorescence; series mostly up to 150 µM; activity change, negative = inhibition: at the top concentration. The method, boiled down:
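Nucleotide exchange followed as fluorescence loss when BODIPY-GDP leaves Rap1B (480 nm excitation, 540 nm emission), read at 5 min intervals over 30 min. Reaction: 100 nM EPAC1, 250 nM RAP1B-BODIPY-GDP, 50 uM GDP; ATA and DMSO define normalization.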
In general terms: Quantitative high-throughput screening tests each substance at several concentrations.
Consider `Cc1c2ccncc2c(C)c2c1[nH]c1ccccc12`, for which the activity change, negative = inhibition entry is “inactive”.
Same read-out and setting: as for `CC(C)(O)[C@@H]1C2OC(=O)[C@@H]1[C@]1(O)C[C@H]3O[C@]34C(=O)O[C@H]2[C@]14C` (tested in a mixture with another compound), the figure is inactive: -1.26% [at 75.8 µM].
Still for that read-out and setting: as for `CC(=O)OCC(=O)[C@H]1CC[C@H]2[C@@H]3CC[C@H]4C[C@H](O)CC[C@]4(C)[C@H]3C(=O)C[C@]12C`, the figure is inactive: 1.34% [at 75.8 µM]; as for `CC(=O)NBr`, inactive: -9.89% [at 75.8 µM]; as for `C=CCN1CCC2(C)c3cc(O)ccc3CC1C2C` (configuration not stated), inactive: 11.9%.
With `CC(=O)Oc1c2c(c(CC=C(C)C)c3c1C(=O)C1=CC4CC5C(C)(C)OC(C/C=C(\C)C(=O)O)(C4=O)[C@]15O3)OC(C)(CCC=C(C)C)C=C2` (some centres not stated), the Potency is active: 44.7 µM.
`CCC1(c2cnc[nH]2)Cc2ccccc2C1`: the activity change, negative = inhibition result is “inactive”.
On the same count and under the same terms, under `O=C(O)COc1ccccc1` stands inactive: -13.9%; under `CN(C)c1ccc(C=C2C(=O)NC(=O)NC2=O)cc1`, inactive: -2.79%; under `CC1=C2CC3C(CC=C4C[C@@H](O)CC[C@@]43C)[C@@H]2CC[C@]12O[C@@H]1C[C@H](C)CN[C@H]1[C@H]2C` (some centres not stated), inactive: 17.8% [at 201 µM].
Still for that read-out and setting: under `Cc1ccc(C[N+](C)(C)C)o1` stands “inactive”.
Take `CC1(C)C(O)CC(O)[C@]2(C)C1CC(O)[C@]1(C)C2CC[C@@]2(C)C(c3ccoc3)OC(=O)C3O[C@]312` (some centres not stated): the “activity change, negative = inhibition” value is inactive: 0.0609%.
Still for that read-out and setting: under `CC(C)(Cc1c[nH]c2ccc(Cl)cc12)NCCOc1ccccc1OCC1CC1` stands “inactive”; under `C[C@]12C=CC(=O)C=C1CC[C@@H]1[C@@H]2CC[C@]2(C)OC(=O)CC[C@@H]12`, inactive: 24.9%; under `CCCCC/C=C\C=C\[C@H](CCCCCCCC(=O)O)OO`, inactive: -12.7% [at 1.57 µM].
Same read-out and setting: as for `C[C@]12CC[C@@H]3c4ccc(OC(=O)N(CCCl)CCCl)cc4CC[C@H]3[C@@H]1CC[C@@H]2O`, the figure is inactive: -29.5%; as for `CCCN1CCc2cccc3c2[C@H]1Cc1ccc(O)c(O)c1-3`, inactive: 4.39% [at 75.8 µM]; as for `NC(N)=NOCCC(N)C(=O)O` (configuration not stated), “inactive”.
Same read-out and setting: as for `CN1C2CCC1CC(C(=O)OC(CO)c1ccccc1)C2` (configuration not stated), the figure is inactive: 14.1%; as for `CC1N=C(N)OC1c1ccccc1` (configuration not stated), inactive: 13.9% [at 320 µM].
As to `Cc1nccc2c1[nH]c1ccccc12`, the activity change, negative = inhibition result was “inactive”.
Still for that read-out and setting: as for `CCCN(CCC)C1CCc2cccc(O)c2C1` (configuration not stated), the entry is “inactive”; as for `O=C(Nc1ccccc1)N1CC2(CCN(C(=O)Oc3ccccc3)CC2)C1`, inactive: 15.1%.
For the molecule `O=c1oc2ccccc2c(O)c1Cc1c(O)c2ccccc2oc1=O`, the activity change, negative = inhibition result is “inactive”.
Same read-out and setting: as for `c1cc(CN2CC3(CCNCC3)C2)ccn1`, the figure is inactive: 5.56%; as for `OCCN(CCO)CCO`, inactive: 4.77%.
Same read-out and setting: as for `C[C@]12CC[C@H](O)CC1=CCC1C2CC[C@]2(C)C(=O)CC[C@@H]12` (some centres not stated), the figure is inactive: 16.3%.
Same read-out and setting: as for `c1cncc(C2=NCCC2)c1`, the figure is inactive: 24.4%; as for `O=S(=O)(O)c1cc(O)ccc1O`, inactive: 16.6% [at 75.8 µM].
In the case of `O=[N+]([O-])c1cc([As](=O)(O)O)ccc1O`, the activity change, negative = inhibition entry is “inactive”.
The same measure, in the same setting: under `CCN1C[C@@]2(OC(=O)c3ccccc3NC(C)=O)CCC(OC)[C@@]34C5CC6C(OC)C[C@@](O)(C(CC23)[C@@H]14)C5(O)C6OC` (some centres not stated) stands inactive: 15.8%; under `O=[N+]([O-])c1cc(I)c(O)c(I)c1`, inactive: 21.3%.
The same measure, in the same setting: under `c1ccc2c(c1)[I+]c1ccccc1-2` stands “inactive”.
Still for that read-out and setting: as for `COc1cc2c(cc1OC)[C@]13CCN4CC5=CCOC6CC(=O)N2[C@@H]1[C@@H]6C5C[C@@H]43` (some centres not stated), the figure is inactive: 9.89%; as for `CCc1cccc(CC)c1N(COC)C(=O)CCl`, inactive: -2.26%; as for `COC(C/C=C/C=C/CC/C=C\CC(C)/C=C\C(=C/C(=O)O)CC(=O)O)/C(C)=C\C=C(/C)C(=O)O` (configuration not stated), inactive: 14.1% [at 15.3 µM].
Consider `O=C(O)c1ccc2[nH]cc(CCCCN3CC=C(c4ccccc4)CC3)c2c1`, for which the “activity change, negative = inhibition” value was inactive: 18.8%.
Still for that read-out and setting: as for `CNc1ccc2oc(C[C@H]3O[C@@]4(CC[C@H]3C)O[C@H]([C@H](C)C(=O)c3ccc[nH]3)[C@H](C)C[C@H]4C)nc2c1C(=O)O`, the figure is inactive: -12.1% [at 75.8 µM].
As to `CC(C)CCCC1(C)C=Cc2c(O)c3c(c(CCC(C)C)c2O1)OC12C(CC4CC1C(C)(C)OC2(CCC(C)C(=O)O)C4O)C3=O` (configuration not stated), the Potency was active: 70.8 µM.
`COc1ccc2c(c[n+](C)c3c4cc5c(cc4ccc23)OCO5)c1OC`: the activity change, negative = inhibition entry was “inactive”.
On the same count and under the same terms, under `CCOC(=O)c1ncn2c1[C@H]1CCCN1C(=O)c1cc(OC)ccc1-2` stands inactive: 6.6%.
The same measure, in the same setting: as for `CN1CC[C@@]2(C)c3cc(O)ccc3N(C)C12` (some centres not stated), the figure is inactive: -7.22% [at 75.8 µM]; as for `C[N+]1(C)CCCCC1COC(=O)C(O)(c1ccccc1)c1ccccc1` (configuration not stated), inactive: -9.1%.
On to `CC(=O)CC1CCCCN1` (configuration not stated), for which the “activity change, negative = inhibition” value was inactive: 10.5%.
As to `C=C1C2CCC3[C@@](CC[C@@H]4C(C(=O)O)CC(OC5OC(CO)C(OS(=O)(=O)O)C(OS(=O)(=O)O)C5OC(=O)CC(C)C)C[C@]34C)(C2)C1O` (some centres not stated), the “activity change, negative = inhibition” value was inactive: -13.9%.
Consider `O=C1CCCCC1CN1CCCCC1` (configuration not stated), for which the “activity change, negative = inhibition” value was inactive: 10.1%.
On the same count and under the same terms, under `CCN1C[C@]2(COC)[C@H](O)C[C@H](OC)[C@@]34[C@@H]5C[C@@]6(O)[C@H](OC(=O)c7ccccc7)[C@@H]5[C@@](OC(C)=O)([C@@H]([C@H](OC)[C@H]23)[C@@H]14)[C@@H](O)[C@@H]6OC` stands inactive: 18.6%; under `CNc1ccc(C(=O)CC(O)CCC(C)C2OC(=O)CC(O)CC(=O)CC(O)CC(O)CC(O)CC(O)CC3(O)CC(O)C(C(=O)OC)C(CC(O[C@@H]4O[C@H](C)[C@@H](O)[C@H](N)[C@@H]4O)/C=C/C=C/C=C/C=C/C=C/C=C/C=C/C2C)O3)cc1` (some centres not stated), inactive: 14.8%; under `COc1cc2c3cc1Oc1c(OC)c(OC)cc4c1C(Cc1cccc(c1)Oc1ccc(c(O)c1)CC3N(C)CC2)N(C)CC4` (configuration not stated), inactive: 4.91%.
Still for that read-out and setting: as for `CC(C)C[C@H](NC(=O)[C@H](Cc1ccccc1)NC(=O)CNC(=O)[C@H](C)NC(=O)[C@@H](N)Cc1ccc(O)cc1)C(=O)O`, the figure is inactive: 9.98% [at 15.3 µM]; as for `c1ccc(N=Nc2ccccc2)cc1`, inactive: 10.1%; as for `CN(C)C(=O)Oc1cc(OC(=O)N(C)C)cc(C(O)CNC(C)(C)C)c1` (configuration not stated), “inactive”.
On the same count and under the same terms, under `CN(C(=O)Cc1ccc(Cl)c(Cl)c1)C(CN1CCCC1)c1cccc(OCC(=O)O)c1` (configuration not stated) stands “inactive”; under `NCCc1ccc(O)cc1`, “inactive”; under `CN(CCc1ccc(Cl)c(Cl)c1)[C@@H]1CCCC[C@@H]1N1CCCC1`, inactive: 27.9%.
Turning to `COc1ccc2c(c1)C13CCCC[C@@H]1C(C2)N(C)CC3` (some centres not stated), the “activity change, negative = inhibition” value is inactive: 13.5%.
Same read-out and setting: as for `C[C@@H]1[C@H](O)[C@@H](C)C=CC=CCCC=CC=CC=CC=C[C@H](O[C@H]2O[C@@H](C)[C@H](O)[C@@H](N)[C@@H]2O)CC2O[C@](O)(C[C@@H](O)[C@H](O)CC[C@@H](O)C[C@@H](O)C[C@@H](O)CC(=O)O[C@H]1C)C[C@H](O)[C@H]2C(=O)O`, the figure is inactive: 21.5%.
